Laboratory results as given in the supplement of paper PMC4604168 (melanoma cell lines).
This is one part of the list. Many values rest on one well or one pass, so single values are uncertain.

Assays:
Test in all cases: cell count relative to DMSO control; melanoma cells; higher = more viable cells
Details in all cases: library dose: low library concentration; 72 h
MZ2-MEL = system: MZ2-MEL
MeWo = system: MeWo
RPMI7951 = system: RPMI7951
RVH-421 = system: RVH-421
SkMel28 = system: SkMel28
SkMel30 = system: SkMel30
SkMel5 = system: SkMel5
UACC257 = system: UACC257
UACC62 = system: UACC62
WM115 = system: WM115
WM1716 = system: WM1716
WM1745 = system: WM1745
WM3526 = system: WM3526
WM3619 = system: WM3619
WM451Lu = system: WM451Lu
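Note: cell number obtained by counting DAPI-stained nuclei in high-throughput microscope images with image analysis software, screen run in 1,536-well plates.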

SMILES	cell count (MZ2-MEL)	cell count (MeWo)	cell count (RPMI7951)	cell count (RVH-421)	cell count (SkMel28)	cell count (SkMel30)	cell count (SkMel5)	cell count (UACC257)	cell count (UACC62)	cell count (WM115)	cell count (WM1716)	cell count (WM1745)	cell count (WM3526)	cell count (WM3619)	cell count (WM451Lu)
O=C(Oc1ccc([N+](=O)[O-])cc1)N1CCC(C(O)(c2ccc3c(c2)OCO3)c2ccc3c(c2)OCO3)CC1 + CC(C)CCN1c2nc(Nc3cc(F)c(O)c(F)c3)ncc2N(C)C(=O)C1C [BID1870] (first compound 1 µM, partner dose 0.2 µM)	109%	104%	128%	108%	82.9%	99.8%	89.3%	69.4%	90.1%	98%	93.1%	104%	95.6%	118%	109%
CCc1ccc(CCOc2ccc(CC3SC(=O)NC3=O)cc2)nc1 (stereo not drawn) [pioglitazone] + Cc1cc(SCc2sc(-c3ccc(C(F)(F)F)c(F)c3)nc2C)ccc1OCC(=O)O [GW0742] (first compound 2 µM, partner dose 2 µM)	97.6%	94.6%	93.8%	88.9%	86.3%	112%	87%	89.7%	105%	94%	84.8%	89.5%	109%	129%	95.4%
CCN(CC)CCCCNc1ncc2cc(-c3cc(OC)cc(OC)c3)c(NC(=O)NC(C)(C)C)nc2n1 + C/C(O)=C(\C#N)C(=O)Nc1cc(Br)ccc1Br [LFM-A13] (first compound 0.1 µM, partner dose 2 µM)	102%	118%	86.1%	101%	88.2%	111%	114%	91.5%	80.5%	94.8%	98.9%	86.1%	94%	95%	106%
COc1cc(Nc2ncc(F)c(Nc3ccc4c(n3)NC(=O)C(C)(C)O4)n2)cc(OC)c1OC [Tamatinib] + C/C(O)=C(\C#N)C(=O)Nc1cc(Br)ccc1Br [LFM-A13] (first compound 0.4 µM, partner dose 2 µM)	94.4%	83.4%	89.1%	126%	84.7%	89.2%	83.8%	62.9%	96.5%	89.5%	95.4%	62.6%	80.7%	102%	90.9%
CO[C@@H]1[C@H](N(C)C(=O)c2ccccc2)C[C@H]2O[C@]1(C)n1c3ccccc3c3c4c(c5c6ccccc6n2c5c31)C(=O)NC4 [Midostaurin] + Cc1cc(SCc2sc(-c3ccc(C(F)(F)F)c(F)c3)nc2C)ccc1OCC(=O)O [GW0742] (first compound 0.08 µM, partner dose 2 µM)	97.6%	83.5%	82.7%	103%	91.8%	106%	77.3%	71%	94.7%	83.3%	70.3%	85.1%	117%	97.2%	107%
NC(=O)Nc1cc(-c2cccc(F)c2)sc1C(=O)N[C@H]1CCCNC1 + Cc1cc(SCc2sc(-c3ccc(C(F)(F)F)c(F)c3)nc2C)ccc1OCC(=O)O [GW0742] (first compound 0.02 µM, partner dose 2 µM)	109%	94.3%	99.7%	113%	107%	98.3%	102%	118%	103%	99.1%	96.6%	99.4%	90.5%	37.7%	96.7%
Cc1cc(N2CCOCC2)cc2[nH]c(-c3c(NC[C@@H](O)c4cccc(Cl)c4)cc[nH]c3=O)nc12 + C/C(O)=C(\C#N)C(=O)Nc1cc(Br)ccc1Br [LFM-A13] (first compound 0.2 µM, partner dose 2 µM)	105%	79.9%	95.2%	88.3%	75.9%	72.2%	93%	76.8%	78.7%	102%	104%	81%	106%	119%	130%
Cn1nnc2c(C(N)=O)ncn2c1=O [temozolomide] + Cc1cc(SCc2sc(-c3ccc(C(F)(F)F)c(F)c3)nc2C)ccc1OCC(=O)O [GW0742] (first compound 2 µM, partner dose 2 µM)	87.8%	93.6%	91.2%	132%	72.1%	82.6%	94.1%	97.2%	85.5%	96.2%	88%	103%	101%	112%	119%
C/C(O)=C(\C#N)C(=O)Nc1cc(Br)ccc1Br + CC(C)CCN1c2nc(Nc3cc(F)c(O)c(F)c3)ncc2N(C)C(=O)C1C [BID1870] (first compound 2 µM, partner dose 0.2 µM)	106%	102%	107%	103%	84.8%	93.5%	74.6%	70%	82.8%	87.4%	104%	111%	77.8%	98.6%	102%
Cn1sc(=O)n(Cc2ccccc2)c1=O + C[C@]12O[C@H](C[C@]1(O)CO)n1c3ccccc3c3c4c(c5c6ccccc6n2c5c31)CNC4=O [Lestaurtinib] (first compound 0.4 µM, partner dose 0.004 µM)	109%	88.4%	84.7%	118%	107%	113%	–	–	104%	101%	103%	114%	97.5%	90.2%	108%
